Experimental data: the supplement of paper PMC6451100
This is one part of the list. Values come from read counts of a selection and are noisy.

These sequences were tested against T1, Drosophila AGO2 (FLAG-tagged, S2-R+ lysate) (UniProt Q9VUQ5) (assay: AGO2 loading enrichment factor (IP read count / input read count, not library-size normalised) (ratio); higher = more efficient loading into AGO2). Details: randomized region: 5' 5N of miR-317 loop.
T1 sequence: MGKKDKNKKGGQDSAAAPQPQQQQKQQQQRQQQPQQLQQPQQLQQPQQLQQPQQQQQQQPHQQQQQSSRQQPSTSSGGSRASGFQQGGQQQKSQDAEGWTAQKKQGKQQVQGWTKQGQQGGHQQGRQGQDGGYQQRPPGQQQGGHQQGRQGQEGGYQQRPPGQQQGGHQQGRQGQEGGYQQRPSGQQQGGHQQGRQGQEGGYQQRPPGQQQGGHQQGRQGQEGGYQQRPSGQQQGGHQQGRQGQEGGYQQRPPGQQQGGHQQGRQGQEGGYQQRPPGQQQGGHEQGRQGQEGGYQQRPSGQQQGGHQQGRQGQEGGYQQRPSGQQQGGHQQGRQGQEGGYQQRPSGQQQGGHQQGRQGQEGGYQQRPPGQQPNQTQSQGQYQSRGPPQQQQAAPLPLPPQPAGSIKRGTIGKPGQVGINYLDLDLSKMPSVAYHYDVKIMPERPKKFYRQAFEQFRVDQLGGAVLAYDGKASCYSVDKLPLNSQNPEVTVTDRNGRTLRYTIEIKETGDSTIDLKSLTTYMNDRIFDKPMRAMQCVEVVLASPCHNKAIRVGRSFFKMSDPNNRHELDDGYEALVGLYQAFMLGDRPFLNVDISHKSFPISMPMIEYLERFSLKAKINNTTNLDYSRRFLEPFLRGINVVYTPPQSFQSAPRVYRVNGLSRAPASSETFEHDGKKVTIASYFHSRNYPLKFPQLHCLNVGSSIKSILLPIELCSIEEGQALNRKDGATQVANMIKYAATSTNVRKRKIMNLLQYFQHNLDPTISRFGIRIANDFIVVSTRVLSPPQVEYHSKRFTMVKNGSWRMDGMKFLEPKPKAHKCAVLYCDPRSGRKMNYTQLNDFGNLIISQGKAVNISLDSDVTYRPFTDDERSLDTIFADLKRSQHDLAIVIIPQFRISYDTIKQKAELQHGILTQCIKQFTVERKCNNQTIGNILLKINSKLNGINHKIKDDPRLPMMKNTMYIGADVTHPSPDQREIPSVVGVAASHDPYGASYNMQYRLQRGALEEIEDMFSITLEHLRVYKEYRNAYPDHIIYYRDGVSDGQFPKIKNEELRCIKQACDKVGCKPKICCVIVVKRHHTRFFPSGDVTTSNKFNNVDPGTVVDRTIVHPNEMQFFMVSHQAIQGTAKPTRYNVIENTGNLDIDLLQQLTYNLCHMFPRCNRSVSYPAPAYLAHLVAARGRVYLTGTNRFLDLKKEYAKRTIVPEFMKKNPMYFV
Experimental: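 HISSA: 5'-phosphorylated, 32P-labelled 20-nt ssRNA oligos (miR-317 loop, first 5 nt randomized, constant 3' part TGAAATGCAAGCAAG as printed in methods; DNA letters for RNA) incubated 1 h at 25°C in lysate of S2-R+ cells expressing FLAG-AGO2. FLAG-AGO2 was immunopurified and bound oligos were sequenced after splinted ligation. Enrichment factor = IP read count / input read count (raw counts, not library-size normalised); single library, no replicates.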
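Also: Per-sequence enrichment computed with FASTAptamer, counting only reads that carry the expected constant 3′ region.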

| Sequence | AGO2 loading enrichment factor |
| --- | --- |
| ATACCTGAAATGCAAGCAAG | 0.419 |
| ACCTTTGAAATGCAAGCAAG | 0.319 |
| TACAGTGAAATGCAAGCAAG | 0.356 |
| GCCCGTGAAATGCAAGCAAG | 0.219 |
| AGTATTGAAATGCAAGCAAG | 0.369 |
| GCCGCTGAAATGCAAGCAAG | 0.0671 |
| GCCCCTGAAATGCAAGCAAG | 0.199 |
| AATCGTGAAATGCAAGCAAG | 0.513 |
| TAACTTGAAATGCAAGCAAG | 0.0752 |
| CTGCGTGAAATGCAAGCAAG | 0.396 |
| TGCCCTGAAATGCAAGCAAG | 0.325 |
| GTGCGTGAAATGCAAGCAAG | 0.377 |
| AAACTTGAAATGCAAGCAAG | 0.0484 |
| ATCTCTGAAATGCAAGCAAG | 0.22 |
| ACCGGTGAAATGCAAGCAAG | 0.742 |
| TCTCATGAAATGCAAGCAAG | 0.435 |
| ATCAGTGAAATGCAAGCAAG | 0.44 |
| GTTATTGAAATGCAAGCAAG | 0.424 |
| GCCGTTGAAATGCAAGCAAG | 0.332 |
| CCCTCTGAAATGCAAGCAAG | 0.302 |
| TTCGTTGAAATGCAAGCAAG | 0.557 |
| TATACTGAAATGCAAGCAAG | 0.446 |
| TCCAATGAAATGCAAGCAAG | 0.376 |
| CCAGCTGAAATGCAAGCAAG | 0.117 |
| TGTGATGAAATGCAAGCAAG | 0.337 |

| Sequence | AGO2 loading enrichment factor |
| --- | --- |
| CGCACTGAAATGCAAGCAAG | 0.252 |
| AGGGCTGAAATGCAAGCAAG | 0.284 |
| TTGCGTGAAATGCAAGCAAG | 0.0965 |
| GAACTTGAAATGCAAGCAAG | 0.103 |
| ATTTTTGAAATGCAAGCAAG | 0.222 |
| GCGTATGAAATGCAAGCAAG | 0.296 |
| CTTATTGAAATGCAAGCAAG | 0.31 |
| CAGTCTGAAATGCAAGCAAG | 0.282 |
| AAGAATGAAATGCAAGCAAG | 0.381 |
| TTACATGAAATGCAAGCAAG | 0.404 |
| TTAAATGAAATGCAAGCAAG | 0.47 |
| CTATTTGAAATGCAAGCAAG | 0.351 |
| TTTACTGAAATGCAAGCAAG | 0.559 |
| TTCTTTGAAATGCAAGCAAG | 0.287 |
| GCTCATGAAATGCAAGCAAG | 0.176 |
| CCTTTTGAAATGCAAGCAAG | 0.322 |
| TACCATGAAATGCAAGCAAG | 0.515 |
| CTCCTTGAAATGCAAGCAAG | 1.12 |
| AAGAGTGAAATGCAAGCAAG | 0.472 |
| AAGCATGAAATGCAAGCAAG | 0.217 |
| GGGCGTGAAATGCAAGCAAG | 3.37 |
| CAGGCTGAAATGCAAGCAAG | 0.0726 |
| AGGGTTGAAATGCAAGCAAG | 1.51 |
| AGCTATGAAATGCAAGCAAG | 0.269 |
| GCGCCTGAAATGCAAGCAAG | 0.459 |

| Sequence | AGO2 loading enrichment factor |
| --- | --- |
| CAGTTTGAAATGCAAGCAAG | 0.169 |
| TTAGGTGAAATGCAAGCAAG | 0.602 |
| GGGAGTGAAATGCAAGCAAG | 4.22 |
| TATCATGAAATGCAAGCAAG | 0.58 |
| AGCCCTGAAATGCAAGCAAG | 0.381 |
| CTCAATGAAATGCAAGCAAG | 0.431 |
| TAATTTGAAATGCAAGCAAG | 0.402 |
| ACCAATGAAATGCAAGCAAG | 0.357 |
| AACAGTGAAATGCAAGCAAG | 0.36 |
| TGGAATGAAATGCAAGCAAG | 0.613 |
| TAATATGAAATGCAAGCAAG | 0.374 |
| GTACTTGAAATGCAAGCAAG | 0.306 |
| CGCCATGAAATGCAAGCAAG | 0.448 |
| ATGCATGAAATGCAAGCAAG | 0.173 |
| AACTTTGAAATGCAAGCAAG | 0.333 |
| AGCTTTGAAATGCAAGCAAG | 0.171 |
| AGATCTGAAATGCAAGCAAG | 0.39 |
| GATTCTGAAATGCAAGCAAG | 0.408 |
| TCTTGTGAAATGCAAGCAAG | 0.572 |
| GTGTTTGAAATGCAAGCAAG | 0.374 |
| ATCTGTGAAATGCAAGCAAG | 0.384 |
| TTCTATGAAATGCAAGCAAG | 0.455 |
| CTGTGTGAAATGCAAGCAAG | 0.214 |
| CCAGATGAAATGCAAGCAAG | 0.424 |
| TGGTTTGAAATGCAAGCAAG | 0.264 |

| Sequence | AGO2 loading enrichment factor |
| --- | --- |
| AACTGTGAAATGCAAGCAAG | 0.266 |
| CGCGGTGAAATGCAAGCAAG | 0.414 |
| AAGCTTGAAATGCAAGCAAG | 0.0251 |
| TTAAGTGAAATGCAAGCAAG | 0.577 |
| GTCAATGAAATGCAAGCAAG | 0.38 |
| ATCCGTGAAATGCAAGCAAG | 0.614 |
| AAGTATGAAATGCAAGCAAG | 0.419 |
| CTGTCTGAAATGCAAGCAAG | 0.211 |
| GAAGCTGAAATGCAAGCAAG | 0.129 |
| CGCCGTGAAATGCAAGCAAG | 0.435 |
| TGTGTTGAAATGCAAGCAAG | 0.33 |
| CTGACTGAAATGCAAGCAAG | 0.687 |
| GTTGATGAAATGCAAGCAAG | 0.47 |
| TAGCTTGAAATGCAAGCAAG | 0.0442 |
| AGTTTTGAAATGCAAGCAAG | 0.328 |
| TATTATGAAATGCAAGCAAG | 0.359 |
| ACTGATGAAATGCAAGCAAG | 0.406 |
| CTTGTTGAAATGCAAGCAAG | 0.203 |
| TGAGATGAAATGCAAGCAAG | 0.435 |
| CAGAGTGAAATGCAAGCAAG | 0.413 |
| GTGATTGAAATGCAAGCAAG | 0.489 |
| ACTCCTGAAATGCAAGCAAG | 0.311 |
| GGTGATGAAATGCAAGCAAG | 2.42 |
